Values marked as one replicate rest on one cluster of the flow cell; about a third of the high ones do not repeat.
Tested on: ATP
Experiment: switch fluorescence ratio, 500 uM ATP over buffer (Cy3 cluster intensity, sum of 5 cycles each) (fold (ratio)); higher = stronger signal-on switching upon ATP binding; sequences stand for … in TCGTCGGCAGCGTCAGATGTGTATAAGAGACAGTTTTTTTTTTTTTTTTTTTTTTTTT…TC
Conditions: aptamer strand: ATP DNA aptamer (quencher-CACCTGGGGGAGTATTGCGGAGGAAGG + anchor), 100 nM annealed; ATP concentration: 500 uM; one replicate
Summary of the method: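 Per cluster, summed Cy3 intensity from the target cycles was divided by that from the buffer cycles to give the fluorescence ratio, then averaged per switch-domain sequence. Clusters outside 100-1000 RFU were excluded. The Cy3-labelled switching-strand clusters, on a modified Illumina MiSeq flow-cell, were annealed to 100 nM quencher-labelled ATP aptamer and imaged in selection buffer, then after 15 min with 500 uM ATP at 22 °C, for five cycles with NaOH stripping and re-annealing between them.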
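Also: ATP exposure 15 min at 22 °C before imaging.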

In the case of TCCGACCGGC, the switch fluorescence ratio is reported as 2.04.

AGACAAGGAC was tested, and the switch fluorescence ratio was 1.07.

AGTGGATTAG was tested, and the switch fluorescence ratio was 0.969.

Work on AAAAATCAGA yielded a switch fluorescence ratio of 0.975.

Sequence CGGCGATTAG has a switch fluorescence ratio of 0.978.

TAATATCTCA gave a switch fluorescence ratio of 0.978.

Sequence TCACGCCCAG has a switch fluorescence ratio of 1.1.

In the case of ATTATAGATG, the switch fluorescence ratio is reported as 0.939.

TGCCAAAGTG was tested, and the switch fluorescence ratio was 1.03.

TCTGGGGGG showed a switch fluorescence ratio of 1.02.

ATACTTTG was tested, and the switch fluorescence ratio was 1.06.

CGGAGGGGA showed a switch fluorescence ratio of 1.01.

With TCCTACTCCC the switch fluorescence ratio was 1.85.

With AGGGTGTTTC the switch fluorescence ratio was 0.993.

In the case of GACGAAGCTC, the switch fluorescence ratio is reported as 2.71.

AACGTTCTTA showed a switch fluorescence ratio of 0.997.

Work on AGAAGGAGTC yielded a switch fluorescence ratio of 1.1.

GACGGTAGCA showed a switch fluorescence ratio of 1.19.

TTATAGGCCC showed a switch fluorescence ratio of 0.995.

CGCGTGTCGG showed a switch fluorescence ratio of 1.01.

Work on AATATCCGGG yielded a switch fluorescence ratio of 1.01.

AGCATCGGA gave a switch fluorescence ratio of 0.953.

In the case of GGCATGTAAC, the switch fluorescence ratio is reported as 1.12.

In the case of TTAGAAGAGA, the switch fluorescence ratio is reported as 1.05.

Sequence ACCTGGAGTG has a switch fluorescence ratio of 1.08.

Sequence GATAATGCCC has a switch fluorescence ratio of 1.04.

For CGGGGTCTG, the switch fluorescence ratio was 0.981.

Sequence AAGTTAGTTC has a switch fluorescence ratio of 1.02.

Sequence CTCGGGGCGA has a switch fluorescence ratio of 1.06.

GATAGCTTGA gave a switch fluorescence ratio of 0.968.

CTACGGGTTT gave a switch fluorescence ratio of 1.03.

With GGGAAGTGCC the switch fluorescence ratio was 0.945.

In the case of GATCTCAGTG, the switch fluorescence ratio is reported as 1.04.

GTTCTTACAA was tested, and the switch fluorescence ratio was 0.938.

ATAGGACTCA gave a switch fluorescence ratio of 1.06.

For CATTCAAGGC, the switch fluorescence ratio was 1.07.

In the case of AGCAAGTGCG, the switch fluorescence ratio is reported as 1.02.

TGCTTCATTG was tested, and the switch fluorescence ratio was 0.999.

In the case of TCCTGCGTGC, the switch fluorescence ratio is reported as 2.62.

With GAGCCACCCC the switch fluorescence ratio was 1.03.

GTTAGCATAA gave a switch fluorescence ratio of 1.01.

In the case of ACTCTGAGGG, the switch fluorescence ratio is reported as 1.07.

ATGCTTAATT showed a switch fluorescence ratio of 0.987.

ACGGATTATA gave a switch fluorescence ratio of 1.01.

ATATACCGGA was tested, and the switch fluorescence ratio was 1.08.

Sequence GATTCAATAT has a switch fluorescence ratio of 1.09.

With GGGGACATAG the switch fluorescence ratio was 1.01.

For CCGTGAGACT, the switch fluorescence ratio was 1.25.

In the case of GCATGGGACT, the switch fluorescence ratio is reported as 1.03.

AGTATTATGA gave a switch fluorescence ratio of 1.02.

In the case of TGGCGGGGG, the switch fluorescence ratio is reported as 0.98.

For CTGGGTGAA, the switch fluorescence ratio was 1.01.

For CTACGATTTT, the switch fluorescence ratio was 1.11.

With CTTCAGAGTG the switch fluorescence ratio was 0.963.

CAGGGTTA gave a switch fluorescence ratio of 0.966.

AGGTGCGA gave a switch fluorescence ratio of 1.09.

Work on GCTATAGAGT yielded a switch fluorescence ratio of 0.992.

Sequence CTGGCCCATT has a switch fluorescence ratio of 0.978.

Work on ATTCCCGGGT yielded a switch fluorescence ratio of 1.01.

With AACCGGGGTG the switch fluorescence ratio was 1.02.

For GGGAGAGTGC, the switch fluorescence ratio was 1.04.

GCGTACGCGT was tested, and the switch fluorescence ratio was 0.969.

In the case of AAAATGTAAA, the switch fluorescence ratio is reported as 1.

AATCCAGGAG showed a switch fluorescence ratio of 1.

Sequence TCGCTACTT has a switch fluorescence ratio of 1.11.

In the case of CTGGGCTGAG, the switch fluorescence ratio is reported as 1.01.

AAGGTAAACA showed a switch fluorescence ratio of 1.04.

For GATACTACTC, the switch fluorescence ratio was 1.06.

For GGAAGTGATA, the switch fluorescence ratio was 1.

For GCTTGTACCT, the switch fluorescence ratio was 1.1.

For AATGCCGAGG, the switch fluorescence ratio was 0.991.

For TTGACAGTGA, the switch fluorescence ratio was 0.977.

Work on GTACTAGCGT yielded a switch fluorescence ratio of 0.992.

AAGTGCTGTA gave a switch fluorescence ratio of 1.04.

TTCTCCGTGG showed a switch fluorescence ratio of 0.986.

TTCAGAAAAA showed a switch fluorescence ratio of 0.927.

For TGCTCGGAAT, the switch fluorescence ratio was 1.23.

Sequence GTGCACGTA has a switch fluorescence ratio of 0.957.

In the case of AGATATGCGC, the switch fluorescence ratio is reported as 0.997.

TGACATGACC was tested, and the switch fluorescence ratio was 1.08.

In the case of ATAGATGGAT, the switch fluorescence ratio is reported as 1.1.

Work on TAACAGAAAA yielded a switch fluorescence ratio of 1.18.

For CAAAGTGGCC, the switch fluorescence ratio was 0.935.

CAACAAAGG gave a switch fluorescence ratio of 0.981.

For AGGCATTATT, the switch fluorescence ratio was 0.998.

TTCATCAGGT gave a switch fluorescence ratio of 1.04.

With TATGGGCATA the switch fluorescence ratio was 1.04.

Work on TGGGCGCGGG yielded a switch fluorescence ratio of 1.1.

CAAGCG showed a switch fluorescence ratio of 1.02.

Work on TTTTCTAAAA yielded a switch fluorescence ratio of 0.978.

ACATGCTTAA was tested, and the switch fluorescence ratio was 1.01.

For ACGATTTGGC, the switch fluorescence ratio was 1.01.

In the case of ACTAGAAGAG, the switch fluorescence ratio is reported as 0.99.

With TGACGACTTT the switch fluorescence ratio was 0.998.

TAAGGAGTGA was tested, and the switch fluorescence ratio was 1.26.

TCTTACTCAG showed a switch fluorescence ratio of 1.2.

Sequence ATGGCTAGAC has a switch fluorescence ratio of 1.1.

ATCGGCCGAT was tested, and the switch fluorescence ratio was 0.916.

Work on AAGGTGCAGC yielded a switch fluorescence ratio of 0.985.

Work on GTTTTGTTA yielded a switch fluorescence ratio of 1.02.

In the case of ATCGGAGCT, the switch fluorescence ratio is reported as 1.06.

ACGTTCTCTG was tested, and the switch fluorescence ratio was 1.02.

In the case of TGACTAGCGT, the switch fluorescence ratio is reported as 0.995.

For AGTTGTTGTG, the switch fluorescence ratio was 0.958.

Work on GTGCCAATGG yielded a switch fluorescence ratio of 1.04.

For GGTTAAGACG, the switch fluorescence ratio was 1.02.

AGCCTGCAGG gave a switch fluorescence ratio of 0.979.

For GTTTGCTAAC, the switch fluorescence ratio was 0.981.

With TATCTATGGA the switch fluorescence ratio was 1.01.

With TTAGGGGGC the switch fluorescence ratio was 0.998.

Sequence ATCCAGCGCG has a switch fluorescence ratio of 1.04.

CTACGTTGGT showed a switch fluorescence ratio of 1.07.

Sequence TTCTGACCTA has a switch fluorescence ratio of 1.05.

With AGCGCGTTCA the switch fluorescence ratio was 0.978.

TGAGTTCTG gave a switch fluorescence ratio of 1.01.

TCATAGTTCG gave a switch fluorescence ratio of 0.993.

CTCTAGCTGC showed a switch fluorescence ratio of 2.68.

Sequence GGGCTGTCAG has a switch fluorescence ratio of 0.995.

With GTGAAATTCC the switch fluorescence ratio was 1.02.

TGAAAGGACA showed a switch fluorescence ratio of 1.01.

For ATCAGGGTGA, the switch fluorescence ratio was 0.991.

With GATGTTATGG the switch fluorescence ratio was 1.04.

AATCGAAAG was tested, and the switch fluorescence ratio was 1.02.

Work on CATTCTTACG yielded a switch fluorescence ratio of 0.988.

GATTTTATGA was tested, and the switch fluorescence ratio was 1.02.

Sequence GGCCGTAGTG has a switch fluorescence ratio of 1.

With ATCTAACA the switch fluorescence ratio was 1.03.

Sequence AACGACATAC has a switch fluorescence ratio of 2.92.

TAAGCACTGT was tested, and the switch fluorescence ratio was 1.16.

Sequence TAGCACGCTG has a switch fluorescence ratio of 1.1.

GATGTAAATG showed a switch fluorescence ratio of 0.973.

ATAGTTTCTG gave a switch fluorescence ratio of 1.02.

Sequence ATATGGCAGC has a switch fluorescence ratio of 0.96.

Work on TCGCGGGGTC yielded a switch fluorescence ratio of 1.02.

Sequence GGTGCAGCAA has a switch fluorescence ratio of 1.04.

For GAGGCACG, the switch fluorescence ratio was 1.08.

Work on AAATAATTAT yielded a switch fluorescence ratio of 1.

Work on AGCTTCAGGC yielded a switch fluorescence ratio of 1.

Work on CCTTCGTGCG yielded a switch fluorescence ratio of 1.94.

Sequence GTTATTCCCA has a switch fluorescence ratio of 1.05.

In the case of ACTGCGCTTC, the switch fluorescence ratio is reported as 3.02.

With ACTAGGTACT the switch fluorescence ratio was 1.05.

Sequence GCGGAGTGCA has a switch fluorescence ratio of 1.03.

CTTCGGTACG gave a switch fluorescence ratio of 0.988.

Work on CTGACCTTGC yielded a switch fluorescence ratio of 1.9.

Work on GCGTATAAGG yielded a switch fluorescence ratio of 0.947.

With ATCTAACTTG the switch fluorescence ratio was 1.02.

With TGAGGGAGGA the switch fluorescence ratio was 0.973.

TAAGTAGTGC gave a switch fluorescence ratio of 1.01.

TATTTAAGAG was tested, and the switch fluorescence ratio was 0.943.

With TACCTGTCT the switch fluorescence ratio was 0.98.

Sequence CATCGTGAAG has a switch fluorescence ratio of 0.997.

Work on GCGGACTAAG yielded a switch fluorescence ratio of 1.04.

AGTAAGTTGT showed a switch fluorescence ratio of 1.01.

TACATAGACT showed a switch fluorescence ratio of 1.05.

In the case of AGGCACTTGC, the switch fluorescence ratio is reported as 1.

Work on TCTGTATGGT yielded a switch fluorescence ratio of 0.983.

For CCCTTAACCT, the switch fluorescence ratio was 1.64.

In the case of GATTGATCGG, the switch fluorescence ratio is reported as 0.998.

GACGATAGGT showed a switch fluorescence ratio of 0.977.

Work on TCTGCCCTAC yielded a switch fluorescence ratio of 2.37.

With CCTTTTGGTT the switch fluorescence ratio was 1.02.

In the case of GTGGCCGAAG, the switch fluorescence ratio is reported as 0.985.

GTACGGGGTG was tested, and the switch fluorescence ratio was 0.972.

For TAGCGTCTTG, the switch fluorescence ratio was 0.946.

Sequence CAGGGGTGCA has a switch fluorescence ratio of 0.991.

For ACGTCGATTG, the switch fluorescence ratio was 0.995.

Work on TCGTGTGGGC yielded a switch fluorescence ratio of 0.982.

For CGTTTATCTT, the switch fluorescence ratio was 1.03.

For AATCAATTTC, the switch fluorescence ratio was 0.96.

GATAGATTGT showed a switch fluorescence ratio of 1.

With ACATCGTTGT the switch fluorescence ratio was 0.964.

TCTAGTTCTT showed a switch fluorescence ratio of 1.02.

Sequence GGAGTATTGT has a switch fluorescence ratio of 1.04.

TTTGATATCA showed a switch fluorescence ratio of 1.03.

In the case of TGTTTCAACG, the switch fluorescence ratio is reported as 0.951.

For CCTATATAA, the switch fluorescence ratio was 1.03.

For CGTTTTGCTT, the switch fluorescence ratio was 0.991.

Work on AAGTACAGGG yielded a switch fluorescence ratio of 1.17.

In the case of TAGGGACGAT, the switch fluorescence ratio is reported as 0.982.

For GCCTGAACTG, the switch fluorescence ratio was 1.07.

With TTCTACTCAT the switch fluorescence ratio was 1.02.

With TAGGGATGAA the switch fluorescence ratio was 0.952.

With ATGTGAAGAA the switch fluorescence ratio was 1.02.

ATATGACTCA gave a switch fluorescence ratio of 1.03.

TCGCATCGCT gave a switch fluorescence ratio of 1.02.

AGGGGCTCTA showed a switch fluorescence ratio of 1.02.

Work on GATTCTCGGT yielded a switch fluorescence ratio of 1.01.

With ACTGATGGAT the switch fluorescence ratio was 1.02.

Sequence GAACAAGCGT has a switch fluorescence ratio of 0.973.

CGAAAGCTTA gave a switch fluorescence ratio of 1.11.

Work on AAGTCATGAG yielded a switch fluorescence ratio of 0.986.

Work on TAACTTGTCC yielded a switch fluorescence ratio of 1.04.

ACATTCGCT gave a switch fluorescence ratio of 1.02.

TGTTCCTGGG gave a switch fluorescence ratio of 1.05.

Sequence AGCGTACGTC has a switch fluorescence ratio of 0.97.

In the case of AGTTCCCATA, the switch fluorescence ratio is reported as 0.968.

AACCCCGATA was tested, and the switch fluorescence ratio was 1.07.

For GGTATTGGAT, the switch fluorescence ratio was 1.02.

TAACGGCGCT gave a switch fluorescence ratio of 1.01.

Work on TGTATTTG yielded a switch fluorescence ratio of 1.
